Source: PubChem BioAssay AID741 (SRMLSC, 2007)
This list was built around the results that the source calls inconclusive (neither active nor inactive); the mix of calls is not that of the screen. Activity calls are given as the source filed them. Rule as the data show it: active = toxicity enhancement factor above about 0.054; inconclusive = between about 0.00067 and that limit; inactive = weaker than that.

assay: MRP-overexpressing cell chemosensitization – dose response (AID 741); details: MRP-overexpressing cells, viability with/without cytotoxic drug; active compounds read high

| SMILES | toxicity enhancement factor |
| --- | --- |
| C=CCn1c(SCC(=O)c2cc(C)n(C(C)COC)c2C)nc2sc(C)c(C)c2c1=O (stereo unspecified) | inconclusive: 0.0218 |
| Cc1cc(/C=C(/C#N)c2cccc(F)c2)c(C)n1-c1cccnc1 | inconclusive: 0.0222 |
| COC(=O)CSc1nnc2n(-c3ccc(OC)cc3)c(=O)c3c4c(sc3n12)CCCCC4 | inconclusive: 0.0026 |
| Cc1ccc(N2C(N)=C(C#N)C(c3cccnc3)C3=C2CCCC3=O)cc1 (stereo unspecified) | active: 0.0726 |
| Cn1c(=O)n(Cc2ccccc2)c(=O)c2c1nc(NCC1CCCO1)n2Cc1ccccc1 (stereo unspecified) | inconclusive: 0.0094 |
| Cc1ccc(Cn2c(N3CCCCCC3)nc3c2c(=O)[nH]c(=O)n3C)cc1 | inactive: -0.0097 |
| O=C(Oc1ccc(N(Cc2cccs2)C2=NS(=O)(=O)c3ccccc32)cc1)c1ccc(Cl)cc1 | inconclusive: 0.0374 |
| O=C(OCCN(C1=NS(=O)(=O)c2ccccc21)c1ccc(Cl)cc1)c1ccco1 | inconclusive: 0.0164 |
| O=C(c1ccc(CS(=O)(=O)c2ccc(Br)cc2)o1)N1CCN(C2CCCCC2)CC1 | inconclusive: 0.0164 |
| COc1ccc2cc([C@H](C)C(=O)O)ccc2c1 | inactive: -0.0066 |
| CCC(=O)N1CCN(c2ccccc2NC(=O)c2cccc(C)c2)CC1 | inconclusive: 0.0136 |
| CSc1nnc2c3c4c(sc3c(=O)n(-c3ccccc3)n12)CC(C)(C)OC4 | inconclusive: 0.0302 |
| Cc1ccccc1Cn1c(CN2CCN(c3ccc(F)cc3)CC2)nc2c1c(=O)n(C)c(=O)n2C | inconclusive: 0.011 |
| CCOC(=O)c1cc(C)sc1NC(=O)C1CCC1 | inconclusive: 0.0032 |
| CC1=NN(C(N)=S)C(=O)C1N=Nc1ccccc1C (stereo unspecified) | inactive: -0.0057 |
| CN1C(=O)C(CC(=O)Nc2ccc3c(c2)Cc2ccccc2-3)N(C)C1=O (stereo unspecified) | inactive: -0.0009 |
| CCOC(=O)c1sc(NC(=O)CSc2nnc(-c3ccco3)n2CC)c(C(=O)OCC)c1C | active: 0.364 |
| COc1ccccc1Nc1nc(N)nc(CN(C)C2CCCCC2)n1 | inconclusive: 0.0169 |

| SMILES | toxicity enhancement factor |
| --- | --- |
| CCN1CCN(c2nc(-c3ccccn3)nc3ccccc23)CC1 | inconclusive: 0.0009 |
| CCOC(=O)N1CCC(Nc2c(Nc3ccc(C)c(C)c3)c(=O)c2=O)CC1 | inconclusive: 0.0351 |
| Cn1c(=O)c2c(nc(SCCCC#N)n2Cc2c(F)cccc2Cl)n(C)c1=O | inconclusive: 0.0294 |
| O=C(Nc1ccc(-n2nncc2-c2ccco2)cc1)c1cccc(F)c1 | inconclusive: 0.0058 |
| Cn1c(N2CCN(c3ccccn3)CC2)nc2c1c(=O)n(Cc1ccc(Cl)cc1)c(=O)n2C | inconclusive: 0.0078 |
| O=C(O)c1cccnc1Nc1cccc(C(F)(F)F)c1 | inconclusive: 0.0025 |
| CC1(C)CC(=O)C2=C(C1)N(c1ccccc1)C(N)=C(C#N)C2c1ccccc1 (stereo unspecified) | active: 0.108 |
| O=C(CSc1nnc(C2CC2)n1Cc1ccccc1)N1CCN(S(=O)(=O)c2ccccc2)CC1 | inconclusive: 0.0108 |
| COc1ccc(S(=O)(=O)Cc2ccc(C(=O)N3CCN(C4CCCCC4)CC3)o2)cc1 | inconclusive: 0.0099 |
| O=c1c2c3nc4ccccc4nc3n(CC3CCCO3)c2ncn1CCc1ccccc1 (stereo unspecified) | inconclusive: 0.0058 |
| O=C(CSc1nnnn1-c1ccccc1)N1CCc2ccccc21 | inactive: -0.0102 |
| O=C(CSc1nnc(CN2CCOCC2)n1-c1ccc(Cl)cc1)Nc1cc(Cl)ccc1O | active: 0.0702 |
| Cc1ccccc1S(=O)(=O)Cc1ccc(C(=O)N2CCN(C3CCCCC3)CC2)o1 | inconclusive: 0.008 |
| c1ccc(-n2ncc3c(N4CCN(CCOc5cccc6ccccc56)CC4)ncnc32)cc1 | inconclusive: 0.012 |
| Cn1c(=O)c2c(nc(-n3ccnc3)n2Cc2ccccc2)n(C)c1=O | inconclusive: 0.009 |
| CC1CN(c2nc3c(c(=O)n(Cc4ccc(Cl)cc4)c(=O)n3C)n2C)CC(C)O1 (stereo unspecified) | inconclusive: 0.0155 |
| COc1ccc(C(=O)Nc2ccccc2N2CCN(C(=O)C(C)C)CC2)cc1Cl | inconclusive: 0.0246 |
| O=C(c1ccccc1)c1ccc2n1CCC2C(=O)O (stereo unspecified) | inactive: -0.001 |
